Z-score data for 108 compounds are collected here from PubChem BioAssay AID488969 (Vanderbilt High Throughput Screening Facility, 2010).

The full ranking holds about 110,000 compounds; the median of “z-score” is about -0.1, and the highest 2% start at about 2. Some of the results follow. Calls of active or inactive are those of the source.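 Rule for the calls: active = z-score in the third read window above 3 or below -3; inactive = the rest.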

The experiment has as its target Metabotropic glutamate receptor 8 (Rattus norvegicus) (UniProt P70579). Briefly: rat mGluR8 modulators via GIRK flux, primary screen, cell-based, thallium flux, HTS (AID 488969). The settings on record: HEK293 rat mGluR8, GIRK (G protein-gated inwardly rectifying potassium channel) thallium flux, FluoZin2; at 10 µM; stronger effect = higher value; submaximal glutamate (EC20) added with thallium.
UniProt P70579, sequence (P70579 whole entry, looked up): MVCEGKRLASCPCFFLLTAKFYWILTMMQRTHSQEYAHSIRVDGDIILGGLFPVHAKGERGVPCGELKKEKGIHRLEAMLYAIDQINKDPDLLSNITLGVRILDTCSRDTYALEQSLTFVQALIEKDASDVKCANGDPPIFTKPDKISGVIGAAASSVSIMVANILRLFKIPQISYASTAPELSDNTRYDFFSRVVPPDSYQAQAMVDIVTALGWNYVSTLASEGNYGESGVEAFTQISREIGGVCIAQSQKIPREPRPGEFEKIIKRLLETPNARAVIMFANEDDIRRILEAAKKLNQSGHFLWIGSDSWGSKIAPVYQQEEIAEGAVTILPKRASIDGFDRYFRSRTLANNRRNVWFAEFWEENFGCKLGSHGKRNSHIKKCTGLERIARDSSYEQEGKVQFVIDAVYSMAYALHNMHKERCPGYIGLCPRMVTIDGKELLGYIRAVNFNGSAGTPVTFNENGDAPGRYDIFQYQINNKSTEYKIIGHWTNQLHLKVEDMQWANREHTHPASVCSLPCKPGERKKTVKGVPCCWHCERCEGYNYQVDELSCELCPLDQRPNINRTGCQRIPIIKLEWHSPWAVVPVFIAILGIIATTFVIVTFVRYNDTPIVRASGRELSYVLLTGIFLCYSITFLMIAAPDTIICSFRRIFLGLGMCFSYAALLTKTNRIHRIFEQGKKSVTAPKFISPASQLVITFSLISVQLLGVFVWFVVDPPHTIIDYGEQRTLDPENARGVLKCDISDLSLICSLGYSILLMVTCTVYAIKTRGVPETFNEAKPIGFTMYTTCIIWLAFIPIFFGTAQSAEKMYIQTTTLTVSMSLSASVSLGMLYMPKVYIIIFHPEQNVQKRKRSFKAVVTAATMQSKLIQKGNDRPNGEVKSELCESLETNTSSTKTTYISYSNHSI
In turn, `CC(C)=C1C2CCC1C1C(=O)N(NC(=O)COc3ccc(C(C)(C)C)cc3)C(=O)C21` (stereo not drawn) had a z-score of 0.854. To `O=C(Cn1nc(Cc2cccnc2)c2ccccc2c1=O)NCC1CCCO1` (stereo not drawn) belongs -0.128; to `O=C1OC(Cc2ccccn2)C(=O)C1=C1SCCS1` (stereo not drawn), -0.296; to `COc1ccc(CN2CCN(C(=O)CN3C(=O)C4C5C=CC(C5)C4C3=O)CC2)c(OC)c1OC` (stereo not drawn), -0.242. The value for `O=C(COc1ccc(Cl)cc1Cl)NN=C1c2ccccc2-c2ccccc21` was 0.00874; that for `O=C(Nc1ncc(Cl)cn1)c1cccs1` was 0.0318. The value for `CCOc1cc(NC(=S)NCC2CCCO2)c(OCC)cc1NC(=O)c1ccc(OC)cc1` (stereo not drawn) was -0.0591; that for `COc1cc([C@@H]2[C@H]3CNCC=C3C(C#N)=C(N)C2(C#N)C#N)ccc1OC(C)C` was -1.4; that for `O=S(=O)(NCCc1ccncc1)c1cc(Br)ccc1F` was -0.0992.

The compound `CCS(=O)(=O)NCC(c1cccnc1)N1CCN(c2ccccc2F)CC1` (stereo not drawn) registered a z-score of -0.0737. To `O=C(Nc1ccc2ccccc2c1)c1cnccn1` belongs -0.0533; to `COc1ccccc1N1CCN(C(=O)CSc2ncccc2-c2nc3ccccc3[nH]2)CC1`, -0.299.

`Cc1noc(/C=C/NCc2cccnc2)c1S(=O)(=O)N(C)CC(=O)N1CCc2ccccc21` yielded a z-score of -0.262. The value for `COc1ccc(C2NC3=C(CCC3)C3(C#N)C(OC)(OC)N=C(N)C23C#N)cc1` (stereo not drawn) was -0.179; that for `c1ccc([C@H]2CC3C[C@@H](c4ccccc4)N2O3)cc1` was -0.00514; that for `CC(=O)Nc1ccc(S(=O)(=O)NC2(C(F)(F)F)NC(=O)N(C3CCCC3)C2=O)cc1` (stereo not drawn) was -0.127.

Take `O=C(CCNC(=O)c1ccc(Cl)cc1)Nc1ccc(Cl)cc1F`: the z-score is -0.0435. To `CCOC(=O)c1cnc(-n2nc(C)cc2C)nc1Nc1ccc(C)cc1` belongs -0.102. The value for `CN(C)C(=O)c1cnc(Sc2ncc(C(F)(F)F)cc2Cl)n1C` was 0.0512. For the compound `COc1cc(/C=C2\SC(=Nc3ccccc3)N(Cc3ccco3)C2=O)ccc1OC(C)C(=O)O` (stereo not drawn), the z-score is -1.1. `CC(=O)Nc1ccccc1C(=O)C(=O)Nc1cccc(C(=O)NC2CC2)c1`: the z-score is -0.155. The value for `C=CCNC(=S)NNC(=O)C(CCC(C)C)CC(C)(C)O` (stereo not drawn) was -0.0486; that for `CCCCNc1nc(CC(C)=O)ns1` was 0.435; that for `CC1Cc2ccccc2N1C1=NS(=O)(=O)c2ccccc21` (stereo not drawn) was 0.217. To `COc1ccc(NS(=O)(=O)c2cc(NC(=O)[C@@H](NC(=O)c3ccccc3)C(C)C)ccc2C)cc1` belongs -0.302; to `CN(C)CC(=O)N1c2ccccc2CCc2ccc(NC(=O)c3ccc(N)cc3)cc21`, 0.311; to `COc1ccc(-c2nnn(CC(=O)Nc3sc4c(c3C#N)CCCC4)n2)cc1`, 0.36. `C=CCn1c(SCC(=O)C(C)(C)C)nnc1-c1ccccn1` gave a z-score of -0.555. To `CCC(C)c1c(O)nc(SCc2ccccc2)[nH]c1=O` (stereo not drawn) belongs 0.256.

Regarding `Cc1cccc(N2CCN(C(=O)Cc3ccc(-n4c(=O)[nH]c5ccsc5c4=O)cc3)CC2C)c1` (stereo not drawn), the z-score turned out to be 0.108. The value for `NNC(=O)C=C1CCN(c2ncc(C(F)(F)F)cc2Cl)CC1` was 0.00385.

`Cc1ccc(N2CC(C(=O)NCc3ccccn3)CC2=O)cc1` (stereo not drawn) returned a z-score of -0.442. As to `CC1(C)CC(=O)c2cc(NC(=O)c3ccccc3)c(=O)oc2C1`, the z-score stood at 0.164.

`COc1ccc(-c2cc(C(F)(F)F)c(C#N)c(SCC(=O)Nc3nc(C)co3)n2)cc1` gave a z-score of -0.185.

The compound `Nc1nnc(CSCc2ccc(Cl)cc2Cl)s1` came in with a z-score of -0.105. The value for `COc1ccc(C2C(C(=O)OCC(=O)N3CCCCC3)CCC(=O)N2c2ccc(OC)cc2)cc1` (stereo not drawn) was -0.185; that for `CCC(c1nnnn1Cc1ccco1)N1CCN(c2cc(Cl)ccc2C)CC1` (stereo not drawn) was -0.242; that for `COC(=O)C1CCN(C(=O)NC2CCCCC2)CC1` was -0.11. To `O=C(CSc1nc2c(c(=O)n1-c1ccc(Br)cc1)SCC2)NCC1CCCO1` (stereo not drawn) belongs -0.367; to `Cc1cccc(Cn2c(N3CCCCC3C)nc3c2c(=O)[nH]c(=O)n3C)c1` (stereo not drawn), 0.156. The value for `Cc1ccccc1-c1nsc(SCC(=O)NCc2ccc3c(c2)OCO3)n1` was -0.268; that for `Cc1cc(N2CCN(C(=O)c3ccco3)CC2)n2nc(-c3cccc(F)c3)cc2n1` was -0.927. On to `CC(=O)c1cccc(N/C=C\C(=O)c2ccc(C)cc2)c1`, for which the z-score is -0.165. To `Cc1occc1C(=O)Nc1ccccc1NC(=O)c1ccoc1C` belongs 0.13. `COc1ccc(C(=O)N/N=C2/SCC(=O)N2Cc2ccc3c(c2)OCO3)cc1OC` registered a z-score of 0.521. Compound `CC(C)C(=O)Nc1nnc(SCC(=O)Nc2ccc3c(c2)OCO3)s1` came in with a z-score of -0.107. To `CC(C)(C)c1ccc(OCC(=O)NCc2ccco2)cc1` belongs -0.288; to `Cc1[nH]c2ccccc2c1/C=C/C(=O)c1ccccc1`, 0.793. Take `CCOC(=O)Cn1nc(/C=C/c2ccc(C)cc2)ccc1=O`: the z-score was -0.0199. To `Cc1nn(Cc2ccc(Cl)cc2Cl)c(Cl)c1/C=C/C(=O)OCC(=O)NCC(F)(F)F` belongs -0.136. To `Cc1ccc(S(=O)(=O)n2c(CN3CCCC(C)C3)nc3ccccc32)cc1` (stereo not drawn) belongs -0.131.

In turn, `C=CCn1c(SCC(=O)Nc2cc(C)on2)nc2sc(CC)cc2c1=O` gave a z-score of -0.296. The value for `CCCCOC(=O)C1=C(C)Nc2nnnn2C1c1ccc(OC)c(OC)c1OC` (stereo not drawn) was -0.468.

For the compound `COc1ccccc1NC(=S)N(Cc1ccco1)Cc1cc2cccc(C)c2[nH]c1=O`, the z-score was -0.245. The value for `O=C1C(Cc2cccc([N+](=O)[O-])c2)SC(=Nc2ccccc2)N1c1ccccc1` (stereo not drawn) was -0.396; that for `O=C(c1ccccn1)c1conc1C(=O)c1ccc(Br)cc1` was -0.238; that for `O=C(Nc1ccnc(-c2cccnc2)n1)c1cccc(Cl)c1Cl` was -0.71. For the compound `COc1cccc(/C=N/NC(=O)c2cccc([N+](=O)[O-])c2)c1OS(=O)(=O)c1ccccc1`, the z-score was -0.638. Turning to `CCCc1nc2ccccc2c(C(=O)OCC(=O)NCc2ccc3c(c2)OCO3)c1CC`, the z-score was -0.306.

`COc1ccc(C2C=C(c3ccccc3)Nc3nnnn32)cc1` (stereo not drawn): the z-score was -0.00589. With `CCC(=O)N1CCN(c2ccccc2NC(=O)COc2ccccc2Cl)CC1`, the z-score is -1.24.

The compound `CCc1noc(C)c1C(=O)Nc1nc(-c2ccc(Cl)cc2Cl)cs1` came in with a z-score of -0.135.

In turn, `O=C(NC1CCCCCC1)c1nc2ncccn2n1` gave a z-score of 0.723. To `CN(C)S(=O)(=O)Nc1ccc(NS(=O)(=O)N(C)C)c(S(=O)(=O)c2ccccc2)c1` belongs -0.106. Consider `O=C1[C@@H]2[C@H](C(=O)N1O)[C@H]1C=C[C@@H]2C1`, for which the z-score was -0.447. In turn, `NS(=O)(=O)c1ccc(CNC(=O)C23CC4CC(CC(C4)C2)C3)cc1` gave a z-score of 0.404. To `CC(=O)c1cc(F)c(N2CCN(CCC#N)CC2)cc1C` belongs 0.142; to `Cc1noc(C)c1C(=O)OCC(=O)c1cc(C)n(Cc2ccccc2Cl)c1C`, -0.108; to `COC(=O)c1ncccc1SC`, -0.0754.

Compound `CCOC(=O)c1cn(Cc2ccc(Br)cc2)nn1` came in with a z-score of 0.0601. The value for `COC(=O)c1ccccc1NC(=O)Cn1nnc(-c2ccc(OC)cc2)n1` was -0.0245. To `Cc1cc(C(F)(F)F)nn1CC(=O)N1CCOCC1` belongs -0.0383; to `COC(=O)c1ccccc1NC(=S)NC(=O)c1ccccc1`, active: 13.1. To `CCc1cc(=O)oc2cc3oc(C)c(C)c3cc12` belongs -0.296. With `Cc1cc(C)nc(N2C(=O)CC(Cc3ccccc3)C2=O)n1` (stereo not drawn), the z-score came out at 0.422. The value for `CCCCNC(=S)NNC(=O)c1csc(C)c1C` was 0.0325; that for `CC1(C(=O)NC2CCCCCCC2)CCC(=O)N1Cc1cccnc1` (stereo not drawn) was -0.154; that for `CC1(C)CC(=O)C=C(Nc2ccc(OCC(F)(F)C(F)F)cc2)C1` was 0.523. To `CCN(CC)C(=O)C1CCCN(c2ccc([N+](=O)[O-])cc2/C=N/NC(=O)c2ccc([N+](=O)[O-])cc2)C1` (stereo not drawn) belongs -1.4; to `COc1cc(-c2cc3nc(C)c(C)c(=O)n3[nH]2)cc(OC)c1OC`, 2.19. To `COC(=O)c1c(C(=O)OC)c2ccncn2c1Cl` belongs 0.148; to `Cc1nc2ccccc2c(=O)n1NC(=O)c1ccco1`, -0.0351; to `CCOC(=O)c1ccc(COC(=O)c2cc3ccccc3oc2=O)o1`, -1.71. Take `CCN(CC)S(=O)(=O)c1ccc(Cl)c(NC(=O)c2ccc(C#N)cc2)c1`: the z-score was -0.194.

`Nc1nc(SCc2ccccc2)ns1`: the z-score came to 0.245.

Regarding `COc1ccc(C(C(=O)NC(C)(C)C)N(Cc2ccco2)C(=O)CCC(=O)Nc2cc(C)on2)cc1` (stereo not drawn), the z-score is -0.0039. `CCC(C)[C@H](NC(=O)NCc1ccc(Cl)cc1)C(=O)OC` (stereo partly drawn) showed a z-score of -0.377. `O=C(OCc1nnc(-c2ccccc2)o1)c1ccco1`: the z-score was -1.24. As for `CC(C)(C)c1ccc(S(=O)(=O)NCC(=O)N2CCN(C(=O)c3ccco3)CC2)cc1`, the z-score was -0.0781.

The compound `Cc1c(Cl)cccc1NC(=S)NCc1ccccc1Cl` came in with a z-score of 0.101.

The compound `COc1ccc(NC(=O)C2CC(=O)OC23CCOC(C)(C)C3)cc1` (stereo not drawn) gave a z-score of 0.397. The value for `COc1ccc(S(=O)(=O)N(CC(=O)N2CCN(C)CC2)C2CCCCC2)cc1OC` was 1.28; that for `CCCCCCNC(=O)c1c(N)n(/N=C/c2ccco2)c2nc3ccccc3nc12` was -0.0764; that for `Cc1nc2sc(C(c3ccccc3)N3CCOCC3)c(O)n2n1` (stereo not drawn) was 0.0911. The compound `CCOc1cc(S(=O)(=O)NC2CCCC2)ccc1Cl` came in with a z-score of 0.424. On to `CNC(=O)CN(c1ccc2c(c1)OCCO2)S(C)(=O)=O`, for which the z-score is -0.0586. As to `O=C(c1ccco1)N1CCN(S(=O)(=O)c2ccc3c(c2)CCN3C(=O)C2CC2)CC1`, the z-score was -0.077. The value for `CCCn1nc2cc(C(=O)NCc3ccccc3OC)ccc2c1OCC` was -0.367. Compound `CCOC(=O)c1cnc2ccc(OCC)cc2c1N1CCN(c2ccccc2)CC1` came in with a z-score of 0.111. As for `O=C(NC(=S)NCCC1=CCCCC1)c1cncc(Br)c1`, the z-score worked out at 1.85. The value for `COCCCN(C(=S)NC(=O)c1ccc(C(C)(C)C)cc1)c1c(N)n(Cc2ccccc2)c(=O)[nH]c1=O` was -0.0611; that for `CCOC(=O)N1CCN(C(=O)C2COc3ccccc3O2)CC1` (stereo not drawn) was 0.212; that for `COC(=O)c1ccc(CSc2nnnn2Cc2ccccc2)cc1` was -0.989. Compound `N#Cc1ccccc1-n1c(N)c(C(=O)N2CCCC2)sc1=S` displayed a z-score of 0.327.

`COc1ccc(-n2c(SCc3ccc([N+](=O)[O-])cc3)nnc2-c2ccc(C)cc2)cc1`: the z-score is -0.158.

`CSc1nc2ccc(S(=O)(=O)N(C)C)cc2s1` registered a z-score of -0.547.

The compound `O=S(=O)(NCC1CCCO1)c1ccc2oc3ccc(S(=O)(=O)NCC4CCCO4)cc3c2c1` (stereo not drawn) displayed a z-score of -1.32. The value for `Cc1ccc2nsnc2c1S(=O)(=O)Nc1cccc2nsnc12` was active: 14.7.
